#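 Growth conditions: 96-well plates. Treatment: test compound, 48 hours, 5 concentrations. Analysis: linear interpolation between bracketing concentrations; unreached endpoints set to highest concentration. GI50 is the concentration that inhibits growth by half. The concentration for full growth arrest is given as TGI.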
# Test system: NCI-H322M lung
# Assay: NCI-60 cell line screen, 48 h
SMILES,GI50 [nM],TGI [nM]
CCC(C)[C@H]1C(=O)O[C@H](C(C)C)C(=O)N(C)[C@@H](C(C)C)C(=O)O[C@H](C(C)C)C(=O)N(C)[C@@H](C(C)C)C(=O)O[C@H](C(C)C)C(=O)N1C (some centres undefined),2500,> 10000
COc1ccc([C@H]2[C@H](O)C(=O)N2c2cc(OC)c(OC)c(OC)c2)cc1Cl,< 21,> 100000

# — PubChem BioAssay (NCI)
